Data published in the RNAGym collection of RNA variant scans (doi:10.1101/gad.245936.114).
Variants at the floor of the assay are shown more often than the library holds them.

B1: tRNA (parent)
chain: CUCUCGGUAGCCAAGUUGGUUUAAGGCGCAAGACUUUAAUUUAUCACUACGAAAUCUUGAGAUCGGGCGUUCGACUCGCCCCCGGGAGAUUUUUUCCUCGAGCAA

Variants of: B1
Test: nonsense suppression (GFP-seq) (ratio to wild type); higher = more function; SUP4oc tRNA, yeast GFP reporter sort-seq
How it was run: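 Nonsense suppression (GFPSEQ) is the median GFP/RFP ratio of each sorting bin, weighted by the variant's estimated share of cells in that bin and expressed relative to the unmutated parent tRNA. Yeast strains carried genome-integrated variants of an ochre-suppressor tRNA from a library with ~3% random mutations, plus a galactose-driven GFP ochre reporter and RFP, and were grown in raffinose/galactose medium containing 80 mg/L adenine. Cells were sorted into GFP/RFP bins, each bin was Illumina-sequenced (phred ≥30), and variants were kept only with ≥100 reads and ≥30 cells.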

| Variant | nonsense suppression |
| --- | --- |
| U17A C68A | ≤ 0.026 |
| G18C C34U C75G | ≤ 0.026 |
| U16G U20C A30C G88U | ≤ 0.026 |
| G18U A33C | ≤ 0.026 |
| U17C G28U G67C | ≤ 0.026 |
| U17G U58G U76A | ≤ 0.026 |
| U16G U57G U58C G66U C77A A89C | ≤ 0.026 |
| G18C A33G U58A G78A | ≤ 0.026 |
| U17A G18U | ≤ 0.026 |
| U17A U70G U71C | ≤ 0.026 |
| U17A C27A C83G A87U | ≤ 0.026 |
| G18C U70G C75G | ≤ 0.026 |
| U17A U71C | ≤ 0.026 |
| U17C U21G G73C G78A | ≤ 0.026 |
| U17G U21C C27A C56U | ≤ 0.026 |
| G18C A54G | ≤ 0.026 |
| U17G U55C G69U | ≤ 0.026 |
| U17C U35G | ≤ 0.026 |
| U17C A30G A60G | ≤ 0.026 |
| G18C G32C U70G A89C | ≤ 0.026 |
| G18A A24G G26A G84A | ≤ 0.026 |
| U17G C80A | ≤ 0.026 |
| U16G G69U | ≤ 0.026 |
| U17A G61A | 0.83 |

| Variant | nonsense suppression |
| --- | --- |
| U17C A33C | ≤ 0.026 |
| G18C A74G | ≤ 0.026 |
| U17G U22G G86U | ≤ 0.026 |
| U17C G66A | ≤ 0.026 |
| U17C G66C | ≤ 0.026 |
| U16G G19C | ≤ 0.026 |
| U17G G59A G65C | ≤ 0.026 |
| U17C A54U | 0.788 |
| G18C C29A | ≤ 0.026 |
| U16G U76A | ≤ 0.026 |
| U16G U76C | 1.07 |
| G18A U63A G66A A89U | ≤ 0.026 |
| U17G G32U G67C U71A | ≤ 0.026 |
| U17A U58A | ≤ 0.026 |
| G18A A30G U35A U55A C79A | ≤ 0.026 |
| U16G C80A | ≤ 0.026 |
| G18A A24C C56U | ≤ 0.026 |
| U17C C34U C80U | ≤ 0.026 |
| G18A C82A | ≤ 0.026 |
| U17A C29G | ≤ 0.026 |
| U17A A54C U58G | ≤ 0.026 |
| U17C A23U A33U C56G G61U G65U | ≤ 0.026 |
| U17C A60G | 0.411 |
| U16G U35G C80A | ≤ 0.026 |

| Variant | nonsense suppression |
| --- | --- |
| U17A U21C C75U C81A G84U | ≤ 0.026 |
| U17C U35C G67A | ≤ 0.026 |
| G18C G61C G88C | ≤ 0.026 |
| G18A G26C U63C G66A U76C | ≤ 0.026 |
| U17C U63A C72G | ≤ 0.026 |
| U17A C29G A74U U76G | ≤ 0.026 |
| G18A C79U | ≤ 0.026 |
| U17G C72G | ≤ 0.026 |
| U17G G18U U70C | ≤ 0.026 |
| G18A G28U | ≤ 0.026 |
| U17A G25A | ≤ 0.026 |
| U17C U63A | 0.197 |
| U17A C79A G86C G88U | ≤ 0.026 |
| G18C U71A | ≤ 0.026 |
| U17G A60C G88A | ≤ 0.026 |
| U16G C56U C64A | ≤ 0.026 |
| G18C U21G G67A | ≤ 0.026 |
| U17A G88A | ≤ 0.026 |
| U17A G88C | ≤ 0.026 |
| U17A U58A G59A G69U | ≤ 0.026 |
| U16G C75A G84U | ≤ 0.026 |
| U17C C83U | 0.191 |
| U17C C83G | ≤ 0.026 |
| G18A U21G G88C | ≤ 0.026 |

| Variant | nonsense suppression |
| --- | --- |
| U17C G73C | ≤ 0.026 |
| G18A G67C U76C G84C | ≤ 0.026 |
| U17A C64A | ≤ 0.026 |
| U17C G28U G65U | ≤ 0.026 |
| U17C G28U G65C | ≤ 0.026 |
| G18C C27G G67A G69C | 1.05 |
| U17C A60C C82U | ≤ 0.026 |
| U16G C56A U63G G85U | ≤ 0.026 |
| U16G U22C G86A | ≤ 0.026 |
| U17A C27A A30G U57A U63A | ≤ 0.026 |
| U16G G67A | 0.178 |
| U16G U21A U57G A62G | ≤ 0.026 |
| G18C A87C | ≤ 0.026 |
| U16G C56A | ≤ 0.026 |
| G18C G69A A74U G88A | ≤ 0.026 |
| G18A A24C G25U | ≤ 0.026 |
| U17G G28C | 0.209 |
| U17A U63A C64U G66C A74C | ≤ 0.026 |
| G18A A54C G88A | ≤ 0.026 |
| G18C C27U C81A | ≤ 0.026 |
| U17G G61A G66U G88C | ≤ 0.026 |
| U17C G18U G69A U76C | ≤ 0.026 |
| U17G A33U G88C | ≤ 0.026 |
| U16G G25C U55G | ≤ 0.026 |

| Variant | nonsense suppression |
| --- | --- |
| U17A C34G | ≤ 0.026 |
| G18U A31U C79G | ≤ 0.026 |
| U17A U71A A87U | ≤ 0.026 |
| U17C G69C C83A | ≤ 0.026 |
| G18C U55A U58G U70A | ≤ 0.026 |
| U17C U21G | 0.801 |
| U17G C79U | 0.764 |
| U16G C64G | ≤ 0.026 |
| U17C U35A C68A | ≤ 0.026 |
| U17G U21G C29G A89C | ≤ 0.026 |
| U17G U20A A62C | ≤ 0.026 |
| U17G G18C | ≤ 0.026 |
| U17C G59C G84C | ≤ 0.026 |
| U17A G26U A89G | ≤ 0.026 |
| U17A G26U A89U | ≤ 0.026 |
| U16G C77U G85C G88U | ≤ 0.026 |
| G18C U58A A62G | ≤ 0.026 |
| G18C A31U G59A | ≤ 0.026 |
| U17A A23C C56A U58A C72A G78A | ≤ 0.026 |
| U17A A30U A33U U55A C56G | ≤ 0.026 |
| U17C A60C G67C U70A | ≤ 0.026 |
| G18C G88A | 0.135 |
| U17G G32U G69C G85C | ≤ 0.026 |
| U17C C77A A87G | ≤ 0.026 |

| Variant | nonsense suppression |
| --- | --- |
| G18C G28U U58A U76C G85U | ≤ 0.026 |
| G18A A23C A33U G66A | ≤ 0.026 |
| U16G C79A | ≤ 0.026 |
| U16G U35G G78U | ≤ 0.026 |
| G18A G19C G88C | ≤ 0.026 |
| U16G U17A | 1.05 |
| U17G G19C U21A U57A G78U | ≤ 0.026 |
| U17G U22C G67U U76G G78C | ≤ 0.026 |
| U17C G26C G67A U71C | ≤ 0.026 |
| U16G G32C C77A G88U | ≤ 0.026 |
| U17C A30U | 0.16 |
| U17C G18A G19C C29U G32A G59U | ≤ 0.026 |
| U17G U63C C68G | ≤ 0.026 |
| G18C C29U G85A G88A | ≤ 0.026 |
| U17C U22C U57C A60G U76C C82U A87U | ≤ 0.026 |
| U17A A87G | 1.19 |
| U17C C72U | ≤ 0.026 |
| G18C A24C A33U | ≤ 0.026 |
| U17C G28A | 1.09 |
| U17A G78A | 0.449 |
| U16G G69A G86U A87C | ≤ 0.026 |
| U17C C77U | ≤ 0.026 |
| G18C G66C | ≤ 0.026 |
| U16G G88A | ≤ 0.026 |

| Variant | nonsense suppression |
| --- | --- |
| U17C | 1.05 |
| U17G | 0.999 |
| U17A | 0.937 |
| U17A G28U A31C C80G G84C G86A | ≤ 0.026 |
| U17A A24U | 0.2 |
| U16G C79A G84U | ≤ 0.026 |
| G18A U20A A33G U58A | ≤ 0.026 |
| G18C U55C A89G | ≤ 0.026 |
| U17A G66A | ≤ 0.026 |
| U16G U22C C64G U71A | ≤ 0.026 |
| U17G A74C G78A | ≤ 0.026 |
| U17G G73U | ≤ 0.026 |
| U17G G67A G73A | ≤ 0.026 |
| G18C A62C A74C | ≤ 0.026 |
| G18A C56A A62G G88C | ≤ 0.026 |
| G18C U22C | ≤ 0.026 |
| U17C G86A | ≤ 0.026 |
| U17C C34G | ≤ 0.026 |
| U17G U21G G73U | ≤ 0.026 |
| U16G G18A A30G U76C | ≤ 0.026 |
| U17G U22A G67U U70G U71G | ≤ 0.026 |
| U16G G28U G67U | ≤ 0.026 |
| G18A U20G | 0.905 |
